Assay results from PubChem BioAssay (NCI).
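Step 1: Grow cells in 96-well plates. Step 2: Expose to compound for 48 hours at 5 concentrations. Step 3: Interpolate endpoints linearly; if unreached, use highest concentration. At the GI50, growth is halved. At the TGI there is no net growth.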

System: NCI-H322M lung
Assay: NCI tumour cell line growth inhibition, 48 h

| Structure (SMILES) | GI50 [µM] | TGI [µM] |
| --- | --- | --- |
| COc1ccc(NC(=O)CSc2nnc(-c3ccc(-c4nc5ccccc5[nH]4)cc3)o2)cc1 | 2.15 | 5.99 |
| CCN1CCN(c2ccc(NC(=O)Nc3ccc4c(c3F)CCN4c3ccnc(C(=O)NC)c3)cc2C(F)(F)F)CC1 | 5.88 | 10.9 |
| O=C1Nc2cc(Cl)ccc2/C1=C/c1cccc(OCc2ccc(Br)cc2F)c1 | 21 | > 100 |
